From PubChem BioAssay (Tox21)
Values joined by “and” are separate entries in the source; they are usually repeats but may differ in a detail not shown here. Equal entries are not always repeated. This list was built around the results that the source calls inconclusive (neither active nor inactive); the mix of calls is not that of the screen. For part of these data: Potencies beside an inconclusive call are fits to weak or partial responses and may not hold up. Some structures have more than one record in an assay (separate samples or runs), and their calls can disagree. Active and inactive are the calls of the source. Unless noted, the call rests on the fitted dose curve.

What was measured:
[1] = biological target: Peroxisome proliferator-activated receptor gamma (Homo sapiens) (UniProt P37231); assay: qHTS assay to identify small molecule antagonists of the peroxisome proliferator-activated receptor gamma (PPARg) signaling pathway (AID 743191); conditions: HEK293H PPARg-UAS-bla, beta-lactamase ratio, antagonist, 17 h; ratio activity, negative = inhibition: at 62.6 µM (top of the series) unless noted; further: nearly all actives have a fitted effect of over 30% in size; further: potency means the concentration at half of the fitted maximal effect; on ratio activity, negative = inhibition: on the % scale 0 is the no-effect control and ±100 the full control effect
Outline: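 GeneBLAzer PPARg UAS-bla HEK293H cells, 5 h post-plating, exposed to compounds 17 h at 37C. LiveBLAzer B/G FRET substrate added for 1 h at room temperature; beta-lactamase reporter read by fluorescence intensity.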

[2] = qHTS assay for small molecule agonists of the antioxidant response element (ARE) signaling pathway (AID 743202; active means well fitted activation curve with a large enough effect in the signal ratio in the repeat runs, not every such curve was filed as active; inconclusive means weak or mixed curves, or effect the other way; inactive means no such curve, though single readings can be large or run the other way; the % refers to the signal ratio; further: potency means the concentration at half of the fitted maximal effect; on activation: on the % scale 0 is the no-effect control and ±100 the full control effect); conditions: HepG2 ARE-bla reporter, beta-lactamase FRET, 16 h; activation: at 73.3 µM (top of the series) unless noted
Outline: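 Agonist mode reporter screen: HepG2 cells with ARE-controlled beta-lactamase are incubated with test compounds for 16 h at 37 C, and beta-lactamase activity is measured as fluorescence of cleaved B/G FRET substrate.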

[3] = qHTS assay for small molecule activators of the heat shock response signaling pathway (AID 743210; active means well fitted activation curve with a large enough effect in the signal ratio in the repeat runs, with a control signal flat, not every such curve was filed as active; inconclusive means weak or mixed curves; the % refers to the signal ratio; further: potency means the concentration at half of the fitted maximal effect); conditions: HeLa HSE-bla reporter, beta-lactamase ratio, 5 h; activation: at 62.6 µM (top of the series)
Outline: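 Quantitative high-throughput format using an engineered HeLa line in which heat shock response elements drive beta-lactamase; after 5 h with compound, cells received a B/G FRET substrate and fluorescence was read.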

[4] = biological target: Peroxisome proliferator-activated receptor delta (Homo sapiens) (UniProt Q03181); assay: qHTS assay to identify small molecule agonists of the peroxisome proliferator-activated receptor delta (PPARd) signaling pathway (AID 743212); conditions: HEK293H PPARd-UAS-bla, beta-lactamase FRET ratio, 17 h; activation: at 62.6 µM (top of the series) unless noted; further: on the % scale 0 is the no-effect control and ±100 the full control effect
Outline: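 Quantitative high-throughput agonist screen in a HEK293H beta-lactamase reporter line under UAS control. Compounds in DMSO, at 37 C. Fluorescence read after 2 h with FRET substrate at room temperature.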

[5] = qHTS assay to identify small molecule antagonists of the peroxisome proliferator-activated receptor delta (PPARd) signaling pathway - cell viability counter screen (AID 743213; active means well fitted curve in the direction sought with a large enough effect in the repeat runs; inconclusive means weak or mixed curves; inactive means no such curve, though single readings can be large; an effect the other way counts as inactive or inconclusive; further: nearly all actives have a fitted effect of over 50% in size; further: potency means the concentration at half of the fitted maximal effect); conditions: PPARd-bla HEK293H viability, CellTiter-Glo luminescence, 17 h; viability change, negative = cytotoxic: at 62 µM (top of the series) unless noted
Outline: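 In this counter screen, HEK293H cells carrying a UAS-beta-lactamase reporter are co-treated with test compounds and 300 nM L165041 (final) for 17 h at 37 C; cell viability is quantified by CellTiter-Glo luminescence.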

[6] = biological target: Bile acid receptor (Homo sapiens) (UniProt Q96RI1); assay: qHTS assay to identify small molecule agonists of the farnesoid-X-receptor (FXR) signaling pathway (AID 743220; active means well fitted activation curve with a large enough effect in the signal ratio in the repeat runs, not every such curve was filed as active; inconclusive means weak or mixed curves, or effect the other way; the % refers to the signal ratio; further: potency means the concentration at half of the fitted maximal effect); conditions: HEK293T FXR-UAS-bla, beta-lactamase FRET ratio, 16 h; activation: at 62.6 µM (top of the series) unless noted
Outline: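 Beta-lactamase reporter under UAS control in GeneBLAzer FXR HEK 293T cells (5000/well) measured with LiveBLAzer FRET substrate after 2 h at room temperature. Compound exposure lasted 16 h at 37C.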

[7] = biological target: Vitamin D3 receptor (Homo sapiens) (UniProt P11473); assay: qHTS assay to identify small molecule agonists of the vitamin D receptor (VDR) signaling pathway (AID 743222); conditions: HEK293T VDR-UAS-bla, beta-lactamase FRET ratio, 16 h; activation: at 63.5 µM (top of the series) unless noted; further: on the % scale 0 is the no-effect control and ±100 the full control effect
Outline: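 In VDR-bla cells, compound-induced beta-lactamase expression is quantified by FRET substrate fluorescence. Treatment lasts 16 h at 37C; substrate develops 2 h at room temperature.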

[8] = qHTS assay to identify small molecule agonists of the vitamin D receptor (VDR) signaling pathway - cell viability counter screen (AID 743224; active means well fitted curve in the direction sought with a large enough effect in the repeat runs; inconclusive means weak or mixed curves; inactive means no such curve, though single readings can be large; an effect the other way counts as inactive or inconclusive; further: potency means the concentration at half of the fitted maximal effect; nearly all actives have a fitted effect of over 50% in size)
Outline: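 Plated VDR-bla cells (4 h, 37C) received compound, incubated 16 h, then LiveBLAzer substrate 2 h RT; CellTiter-Glo added afterwards, luminescence read at 30 min.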

[9] = qHTS assay to identify small molecule antagonists of the vitamin D receptor (VDR) signaling pathway - cell viability counter screen (AID 743225; active means well fitted curve in the direction sought with a large enough effect in the repeat runs; inconclusive means weak or mixed curves; inactive means no such curve, though single readings can be large; an effect the other way counts as inactive or inconclusive; further: potency means the concentration at half of the fitted maximal effect; nearly all actives have a fitted effect of over 50% in size); conditions: VDR-bla HEK293T viability, CellTiter-Glo luminescence, 16 h; viability change, negative = cytotoxic: at 61 µM (top of the series) unless noted
Outline: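 Luminescent cell viability (CellTiter-Glo) in VDR-bla HEK 293T cells after 16 h compound exposure at 37C in the presence of 3 nM final 1-alpha,25-dihydroxy vitamin D3.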

[10] = qHTS assay to identify small molecule agonists of the farnesoid-X-receptor (FXR) signaling pathway - cell viability counter screen (AID 743218; active means well fitted curve in the direction sought with a large enough effect in the repeat runs; inconclusive means weak or mixed curves; inactive means no such curve, though single readings can be large; an effect the other way counts as inactive or inconclusive; further: potency means the concentration at half of the fitted maximal effect; nearly all actives have a fitted effect of over 45% in size); conditions: FXR-bla HEK293T viability, CellTiter-Glo luminescence, 16 h; viability change, negative = cytotoxic: at 62.6 µM (top of the series) unless noted
Outline: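 Parallel cytotoxicity test: compound-treated (16 h, 37 C) HEK 293T FXR-bla reporter cells were lysed with CellTiter-Glo and luminescence recorded.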

[11] = biological target: Peroxisome proliferator-activated receptor delta (Homo sapiens) (UniProt Q03181); assay: qHTS assay to identify small molecule antagonists of the peroxisome proliferator-activated receptor delta (PPARd) signaling pathway (AID 743215; active means well fitted inhibition curve with a large enough effect in the signal ratio in the repeat runs, not every such curve was filed as active; inconclusive means weak or mixed curves, or effect the other way; inactive means no such curve, though single readings can be large or run the other way; the % refers to the signal ratio;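 further: cells stimulated with agonist L165041 at 300 nM final during compound exposure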; further: potency means the concentration at half of the fitted maximal effect); conditions: HEK293H PPARd-UAS-bla, beta-lactamase FRET ratio, antagonist, 17 h; ratio activity, negative = inhibition: at 62 µM (top of the series) unless noted
Outline: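 HEK293H UAS-bla, PPARd; agonist L165041 300 nM final with cpd in DMSO; 37 C 17 h; FRET substrate, RT 2 h; fluorescence intensity.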

[12] = biological target: Vitamin D3 receptor (Homo sapiens) (UniProt P11473); assay: qHTS assay to identify small molecule antagonists of the vitamin D receptor (VDR) signaling pathway (AID 743223; active means well fitted inhibition curve with a large enough effect in the signal ratio in the repeat runs, not every such curve was filed as active; inconclusive means weak or mixed curves, or effect the other way; inactive means no such curve, though single readings can be large or run the other way; the % refers to the signal ratio; further: potency means the concentration at half of the fitted maximal effect); conditions: VDR-UAS-bla HEK293T, beta-lactamase FRET ratio, 16 h; activity change, negative = inhibition: at 61 µM (top of the series) unless noted
Outline: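 Agonist 1alpha,25-dihydroxyvitamin D3 (3 nM in well) was added with each compound to VDR-bla cells preincubated 4 h. Cells stood 16 h at 37C, then FRET substrate 2 h at room temperature; fluorescence intensity recorded.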

[13] = qHTS assay for small molecule activators of the heat shock response signaling pathway - cell viability counter screen (AID 743209; active means well fitted curve in the direction sought with a large enough effect in the repeat runs; inconclusive means weak or mixed curves; inactive means no such curve, though single readings can be large; an effect the other way counts as inactive or inconclusive; further: on the % scale 0 is the no-effect control and ±100 the full control effect; nearly all actives have a fitted effect of over 50% in size); conditions: HSE-bla HeLa viability, CellTiter-Glo luminescence, 5 h; activity change, negative = cytotoxicity: at 62.6 µM (top of the series) unless noted
Outline: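 Readout: CellTiter-Glo luminescence, 30 min at room temperature. System: HSE-bla HeLa cells, 1500/well, plated overnight. Treatment: compounds in DMSO, 5 h at 37 C.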

[14] = qHTS assay to identify small molecule agonists of the peroxisome proliferator-activated receptor delta (PPARd) signaling pathway - cell viability counter screen (AID 743211; active means well fitted curve in the direction sought with a large enough effect in the repeat runs; inconclusive means weak or mixed curves; inactive means no such curve, though single readings can be large; an effect the other way counts as inactive or inconclusive; further: potency means the concentration at half of the fitted maximal effect; nearly all actives have a fitted effect of over 55% in size); conditions: PPARd-bla HEK293H viability, CellTiter-Glo luminescence, 17 h; activity change, negative = cytotoxicity: at 62.6 µM (top of the series) unless noted
Outline: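 Luminescent ATP viability assay (CellTiter-Glo, 30 min RT) in UAS-bla HEK293H cells carrying the PPAR delta reporter construct, 3000 cells/well, after a 17 h compound treatment at 37 C.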

[15] = biological target: Bile acid receptor (Homo sapiens) (UniProt Q96RI1); assay: qHTS assay to identify small molecule antagonists of the farnesoid-X-receptor (FXR) signaling pathway (AID 743217; active means well fitted inhibition curve with a large enough effect in the signal ratio in the repeat runs, not every such curve was filed as active; inconclusive means weak or mixed curves, or effect the other way; inactive means no such curve, though single readings can be large or run the other way; the % refers to the signal ratio; further: potency means the concentration at half of the fitted maximal effect); conditions: HEK293T FXR-UAS-bla, beta-lactamase ratio, CDCA-stimulated, 16 h; activity change, negative = inhibition: at 62.6 µM (top of the series) unless noted
Outline: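 GeneBLAzer FXR-UAS-bla HEK 293T, CDCA-stimulated (50 uM final). Compound treatment 16 h, 37 °C. Detection: beta-lactamase cleavage of B/G FRET substrate, fluorescence.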

[16] = qHTS assay to identify small molecule antagonists of the farnesoid-X-receptor (FXR) signaling pathway - cell viability counter screen (AID 743221; active means well fitted cell-killing curve with a large enough effect in the repeat runs, not every such curve was filed as active; inconclusive means weak or mixed curves, or effect the other way; inactive means no such curve, though single readings can be large or run the other way); conditions: FXR-bla HEK293T viability, CellTiter-Glo luminescence, 16 h; activity change, negative = cytotoxicity: at 62.6 µM (top of the series) unless noted
Outline: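 In GeneBLAzer FXR-UAS-bla HEK 293T cells stimulated with 50 uM chenodeoxycholic acid (final), compounds acted for 16 h at 37 C. Viability was assessed afterwards by CellTiter-Glo luminescence.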
Tags describe the fitted curve by direction and shape or compound fluorescence and quenching.

Sequence of UniProt P37231 (P37231 whole entry, looked up): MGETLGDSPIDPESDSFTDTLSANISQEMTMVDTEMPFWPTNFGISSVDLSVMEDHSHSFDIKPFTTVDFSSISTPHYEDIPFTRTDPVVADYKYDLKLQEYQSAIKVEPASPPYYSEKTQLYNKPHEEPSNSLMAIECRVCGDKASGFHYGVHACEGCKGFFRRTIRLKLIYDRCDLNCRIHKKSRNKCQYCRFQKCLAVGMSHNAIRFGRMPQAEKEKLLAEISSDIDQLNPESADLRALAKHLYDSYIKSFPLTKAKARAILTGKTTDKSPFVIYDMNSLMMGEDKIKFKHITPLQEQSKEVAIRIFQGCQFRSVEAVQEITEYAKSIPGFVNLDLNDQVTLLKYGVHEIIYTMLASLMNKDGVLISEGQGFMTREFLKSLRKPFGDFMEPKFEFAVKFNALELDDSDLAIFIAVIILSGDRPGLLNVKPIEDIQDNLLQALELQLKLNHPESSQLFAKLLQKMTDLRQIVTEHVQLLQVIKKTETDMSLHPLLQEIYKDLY
Sequence of UniProt Q96RI1 (Q96RI1 whole entry, looked up): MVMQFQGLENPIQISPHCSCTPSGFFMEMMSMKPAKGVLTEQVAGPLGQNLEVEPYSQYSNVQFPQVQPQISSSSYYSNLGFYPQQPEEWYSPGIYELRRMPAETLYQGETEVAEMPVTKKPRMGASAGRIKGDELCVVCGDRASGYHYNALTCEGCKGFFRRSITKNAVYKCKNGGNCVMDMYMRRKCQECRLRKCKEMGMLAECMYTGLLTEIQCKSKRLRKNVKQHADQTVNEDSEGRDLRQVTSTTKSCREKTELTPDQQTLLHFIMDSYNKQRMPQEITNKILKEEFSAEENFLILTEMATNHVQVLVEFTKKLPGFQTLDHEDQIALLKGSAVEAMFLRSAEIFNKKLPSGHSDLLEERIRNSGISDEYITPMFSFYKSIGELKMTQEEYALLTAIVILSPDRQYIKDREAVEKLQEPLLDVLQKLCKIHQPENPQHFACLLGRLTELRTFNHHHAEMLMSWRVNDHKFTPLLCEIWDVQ
Sequence of UniProt P11473 (P11473 whole entry, looked up): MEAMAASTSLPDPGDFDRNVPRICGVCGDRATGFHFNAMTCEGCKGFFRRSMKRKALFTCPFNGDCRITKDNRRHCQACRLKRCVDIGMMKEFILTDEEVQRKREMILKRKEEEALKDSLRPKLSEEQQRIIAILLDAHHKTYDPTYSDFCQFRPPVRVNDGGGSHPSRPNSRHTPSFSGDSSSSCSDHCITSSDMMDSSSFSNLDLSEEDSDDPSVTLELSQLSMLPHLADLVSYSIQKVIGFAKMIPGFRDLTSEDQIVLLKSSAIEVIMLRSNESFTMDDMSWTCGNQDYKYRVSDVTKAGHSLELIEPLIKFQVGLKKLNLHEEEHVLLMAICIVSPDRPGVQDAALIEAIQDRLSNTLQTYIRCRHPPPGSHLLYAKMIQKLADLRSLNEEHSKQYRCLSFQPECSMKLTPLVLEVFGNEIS
Sequence of UniProt Q03181 (Q03181 whole entry, looked up): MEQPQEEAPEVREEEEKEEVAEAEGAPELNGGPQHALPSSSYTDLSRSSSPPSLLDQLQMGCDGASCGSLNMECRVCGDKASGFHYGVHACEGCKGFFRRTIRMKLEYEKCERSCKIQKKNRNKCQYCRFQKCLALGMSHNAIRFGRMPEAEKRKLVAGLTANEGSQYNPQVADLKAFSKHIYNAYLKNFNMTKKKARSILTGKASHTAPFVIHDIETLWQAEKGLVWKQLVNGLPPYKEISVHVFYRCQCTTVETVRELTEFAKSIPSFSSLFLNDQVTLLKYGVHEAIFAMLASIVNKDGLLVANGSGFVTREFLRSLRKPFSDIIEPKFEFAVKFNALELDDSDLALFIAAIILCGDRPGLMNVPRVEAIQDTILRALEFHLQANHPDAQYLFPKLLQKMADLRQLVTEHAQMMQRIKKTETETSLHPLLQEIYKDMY

**Q.** Which Potency [1] does the source give for `CCNc1nc(NC(C)(C)C)nc(SC)n1` here?
**A.** inconclusive: 54.3 µM [inhibitor, single point] and inactive

**Q.** What about the Potency [2] of the same compound?
**A.** inconclusive: 30.2 µM [rising, partial curve]

**Q.** What about the activation [2] of the same compound?
**A.** inconclusive: 21.1%

**Q.** What about the Potency [3] of the same compound?
**A.** inactive and inconclusive: 51.9 µM [activator]

**Q.** And the Potency [4]?
**A.** inactive

**Q.** What about the Potency [5] of the same compound?
**A.** inconclusive: 61.6 µM [cytotoxic, single point]

**Q.** And the Potency [6]?
**A.** inconclusive: 3.89 µM [rising, partial curve, poor fit]

**Q.** What about the activation [7] of the same compound?
**A.** inconclusive: -28.3%

**Q.** And the Potency [8]?
**A.** inconclusive: 61.6 µM [cytotoxic, partial curve, poor fit]

**Q.** With `CCCCON=O` as the compound, how does the Potency [1] read?
**A.** inactive

**Q.** What about the Potency [2] of the same compound?
**A.** inactive

**Q.** And the Potency [9]?
**A.** inconclusive: 0.1 µM [cytotoxic, full curve, poor fit]

**Q.** Which results are given for `CC1(C)Cc2cccc(O)c2O1`?
**A.** Potency [1]: inactive; Potency [2]: inconclusive: 71.2 µM and inactive; Potency [10]: inconclusive: 4.9 µM [rising, full curve, poor fit]; Potency [9]: inconclusive: 0.641 µM [cytotoxic, full curve, poor fit]

**Q.** With `Cn1c(N)nc2c3cccnc3ccc21` as the compound, how does the ratio activity, negative = inhibition [1] read?
**A.** inconclusive: 17.4%

**Q.** And the Potency [3]?
**A.** inactive

**Q.** And the Potency [11]?
**A.** inactive

**Q.** And the activity change, negative = inhibition [12]?
**A.** inconclusive: 8.51%

**Q.** For `O=[N+]([O-])c1ccc(CBr)cc1`, which ratio activity, negative = inhibition [1] is on record?
**A.** inconclusive: -16.8% [at 81.1 µM]

**Q.** And the Potency [2]?
**A.** inconclusive: 17 µM [rising, full curve, poor fit]

**Q.** What about the Potency [5] of the same compound?
**A.** inconclusive: 0.216 µM [cytotoxic, full curve, poor fit]

**Q.** And the ratio activity, negative = inhibition [11]?
**A.** inconclusive: -3.29% [at 80.4 µM]

**Q.** Which ratio activity, negative = inhibition [1] does the source give for `Oc1ccc([C@H]2CNCc3c2ccc(O)c3O)cc1O` here?
**A.** inconclusive: 10.3%

**Q.** And the Potency [2]?
**A.** inconclusive: 15 µM [falling, partial curve, poor fit]

**Q.** And the ratio activity, negative = inhibition [11]?
**A.** inconclusive: -0.282%

**Q.** And the Potency [6]?
**A.** inactive

**Q.** With `COc1ccc2c3c1O[C@H]1[C@@H](O)C=C[C@H]4[C@@H](C2)N(C)CC[C@@]341` as the compound, how does the Potency [1] read?
**A.** inconclusive: 53.6 µM

**Q.** What about the Potency [13] of the same compound?
**A.** inactive

**Q.** And the Potency [3]?
**A.** inconclusive: 53.6 µM [activator, partial curve] and inactive

**Q.** And the Potency [14]?
**A.** inconclusive: 67.5 µM [cytotoxic, single point]

**Q.** What about the activation [4] of the same compound?
**A.** inconclusive: 0.955% [at 81.1 µM]

**Q.** And the Potency [5]?
**A.** inactive

**Q.** What about the Potency [11] of the same compound?
**A.** active: 42.6 µM

**Q.** What about the Potency [15] of the same compound?
**A.** inconclusive: 60.2 µM [partial curve]

**Q.** What about the Potency [6] of the same compound?
**A.** inactive

**Q.** And the Potency [16]?
**A.** inconclusive: 67.5 µM [falling, single point]

**Q.** And the Potency [12]?
**A.** inconclusive: 54.1 µM
